# Measured values: the supplement of paper PMC8728848
# The list shows a part of the results.
# B1: CrataBL (Crataeva tapia), C0HJA4 (protein)
# chain: AILTGVPYYILPSTSRAGFSPDNLRKNTSQLSCPLDLITQLRFPRRIGVPVIFTPQNSSLKVVPLSHNLNIHTCSDLWFCPESKIWTVKSSLTHGGSVVTTGGTFRSLGSWFRIERHGDSYKLVHCPRGSTPCRDVGIETVGGGGRRYLAPRDRPLAVRFTRASG
# How the values were obtained:
# Assay in all cases: glycan array binding signal (z-score within array); higher = stronger binding
# Conditions in all cases: glycan notation: IUPAC condensed, linker removed
# Gal(a1-3)Gal(b1-4)GlcNAc = target: Gal(a1-3)Gal(b1-4)GlcNAc
# Procedure, shortened: (§1)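 Glycan array binding is given as a within-array Z-score, which can be read as non-binding when negative. The arrays, 3228 of them, came from the Consortium for Functional Glycomics database and were retained only where the protein sequence was available. Z-scores were averaged across arrays of the same protein sequence at different concentrations or buffers and across linkers.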
# [1] = target: Gal(a1-3)Gal(b1-4)GlcNAc(b1-2)Man
# Procedure, shortened: as §1
# [2] = target: Gal(a1-3)Gal(b1-4)GlcNAc(b1-2)Man(a1-3)[Gal(a1-3)Gal(b1-4)GlcNAc(b1-2)Man(a1-6)]Man(b1-4)GlcNAc(b1-4)GlcNAc
# Procedure, shortened: as §1
# [3] = target: Gal(a1-3)Gal(b1-4)GlcNAc(b1-3)GalNAc
# Procedure, shortened: as §1
# [4] = target: Gal(a1-3)Gal(b1-4)GlcNAc(b1-6)GalNAc
# Procedure, shortened: as §1
# [5] = target: Gal(a1-3)Gal(b1-4)[Fuc(a1-3)]GlcNAc
# Procedure, shortened: as §1
# [6] = target: Gal(a1-3)Gal(b1-4)[Fuc(a1-3)]GlcNAc(b1-2)Man(a1-3)[Gal(a1-3)Gal(b1-4)[Fuc(a1-3)]GlcNAc(b1-2)Man(a1-6)]Man(b1-4)GlcNAc(b1-4)GlcNAc
# Procedure, shortened: as §1
# Gal(a1-3)GalNAc = target: Gal(a1-3)GalNAc
# Procedure, shortened: as §1
# [7] = target: Gal(a1-3)[Gal(a1-4)]Gal(b1-4)GlcNAc
# Procedure, shortened: as §1
# [8] = target: Gal(a1-4)Gal(b1-3)GlcNAc(b1-2)Man(a1-3)[Gal(a1-4)Gal(b1-3)GlcNAc(b1-2)Man(a1-6)]Man(b1-4)GlcNAc(b1-4)GlcNAc
# Procedure, shortened: as §1
# Gal(a1-4)Gal(b1-4)Glc = target: Gal(a1-4)Gal(b1-4)Glc
# Procedure, shortened: as §1
# Gal(a1-4)Gal(b1-4)GlcNAc = target: Gal(a1-4)Gal(b1-4)GlcNAc
# Procedure, shortened: as §1
# [9] = target: Gal(a1-4)Gal(b1-4)GlcNAc(b1-2)Man(a1-3)[Gal(a1-4)Gal(b1-4)GlcNAc(b1-2)Man(a1-6)]Man(b1-4)GlcNAc(b1-4)GlcNAc
# Procedure, shortened: as §1
# [10] = target: Gal(a1-4)Gal(b1-4)GlcNAc(b1-3)Gal(b1-4)Glc
# Procedure, shortened: as §1
# Gal(a1-4)GlcNAc = target: Gal(a1-4)GlcNAc
# Procedure, shortened: as §1
# Gal(a1-6)Glc = target: Gal(a1-6)Glc
# Procedure, shortened: as §1
# Gal(b1-2)Gal = target: Gal(b1-2)Gal
# Procedure, shortened: as §1
# Gal(b1-3)Gal = target: Gal(b1-3)Gal
# Procedure, shortened: as §1
# Gal(b1-3)Gal(b1-4)GlcNAc = target: Gal(b1-3)Gal(b1-4)GlcNAc
# Procedure, shortened: as §1
# Gal(b1-3)GalNAc = target: Gal(b1-3)GalNAc
# Procedure, shortened: as §1
# [11] = target: Gal(b1-3)GalNAc(a1-3)[Fuc(a1-2)]Gal(b1-4)Glc
# Procedure, shortened: as §1
# [12] = target: Gal(b1-3)GalNAc(a1-3)[Fuc(a1-2)]Gal(b1-4)GlcNAc
# Procedure, shortened: as §1
# Gal(b1-3)GalNAc(b1-3)Gal = target: Gal(b1-3)GalNAc(b1-3)Gal
# Procedure, shortened: as §1
# [13] = target: Gal(b1-3)GalNAc(b1-3)Gal(a1-4)Gal(b1-4)Glc
# Procedure, shortened: as §1
# [14] = target: Gal(b1-3)GalNAc(b1-4)Gal(b1-4)Glc
# Procedure, shortened: as §1
# [15] = target: Gal(b1-3)GalNAc(b1-4)[Neu5Ac(a2-3)]Gal(b1-4)Glc
# Procedure, shortened: as §1
# Gal(b1-3)GlcNAc = target: Gal(b1-3)GlcNAc
# Procedure, shortened: as §1
# [16] = target: Gal(b1-3)GlcNAc(a1-3)Gal(b1-4)GlcNAc
# Procedure, shortened: as §1
# [17] = target: Gal(b1-3)GlcNAc(a1-6)Gal(b1-4)GlcNAc
# Procedure, shortened: as §1
# Gal(b1-3)GlcNAc(b1-2)Man = target: Gal(b1-3)GlcNAc(b1-2)Man
# Procedure, shortened: as §1
# [18] = target: Gal(b1-3)GlcNAc(b1-2)Man(a1-3)[Gal(b1-3)GlcNAc(b1-2)Man(a1-6)]Man(b1-4)GlcNAc(b1-4)GlcNAc
# Procedure, shortened: as §1
# [19] = target: Gal(b1-3)GlcNAc(b1-2)Man(a1-3)[Gal(b1-3)GlcNAc(b1-2)Man(a1-6)]Man(b1-4)GlcNAc(b1-4)[Fuc(a1-6)]GlcNAc
# Procedure, shortened: as §1
# [20] = target: Gal(b1-3)GlcNAc(b1-2)Man(a1-3)[GlcNAc(b1-4)][Gal(b1-3)GlcNAc(b1-2)Man(a1-6)]Man(b1-4)GlcNAc(b1-4)GlcNAc
# Procedure, shortened: as §1
# [21] = target: Gal(b1-3)GlcNAc(b1-2)[Gal(b1-3)GlcNAc(b1-6)]Man(a1-6)[Gal(b1-3)GlcNAc(b1-2)Man(a1-3)]Man(b1-4)GlcNAc(b1-4)GlcNAc
# Procedure, shortened: as §1
# [22] = target: Gal(b1-3)GlcNAc(b1-3)Gal(b1-3)GlcNAc
# Procedure, shortened: as §1
# [23] = target: Gal(b1-3)GlcNAc(b1-3)Gal(b1-4)Glc
# Procedure, shortened: as §1
# [24] = target: Gal(b1-3)GlcNAc(b1-3)Gal(b1-4)GlcNAc
# Procedure, shortened: as §1
# [25] = target: Gal(b1-3)GlcNAc(b1-3)Gal(b1-4)GlcNAc(b1-2)Man(a1-3)[Gal(b1-3)GlcNAc(b1-3)Gal(b1-4)GlcNAc(b1-2)Man(a1-6)]Man(b1-4)GlcNAc(b1-4)GlcNAc
# Procedure, shortened: as §1
# [26] = target: Gal(b1-3)GlcNAc(b1-3)Gal(b1-4)GlcNAc(b1-2)[Gal(b1-3)GlcNAc(b1-3)Gal(b1-4)GlcNAc(b1-6)]Man(a1-6)[Gal(b1-3)GlcNAc(b1-3)Gal(b1-4)GlcNAc(b1-2)Man(a1-3)]Man(b1-4)GlcNAc(b1-4)[Fuc(a1-6)]GlcNAc
# Procedure, shortened: as §1
# [27] = target: Gal(b1-3)GlcNAc(b1-3)Gal(b1-4)GlcNAc(b1-3)Gal(b1-4)GlcNAc(b1-2)[Gal(b1-3)GlcNAc(b1-3)Gal(b1-4)GlcNAc(b1-3)Gal(b1-4)GlcNAc(b1-6)]Man(a1-6)[Gal(b1-3)GlcNAc(b1-3)Gal(b1-4)GlcNAc(b1-3)Gal(b1-4)GlcNAc(b1-2)Man(a1-3)]Man(b1-4)GlcNAc(b1-4)[Fuc(a1-6)]GlcNAc
# Procedure, shortened: as §1
# [28] = target: Gal(b1-3)GlcNAc(b1-3)Gal(b1-4)GlcNAc(b1-6)[Gal(b1-3)GlcNAc(b1-3)]Gal(b1-4)Glc
# Procedure, shortened: as §1
# [29] = target: Gal(b1-3)GlcNAc(b1-3)Gal(b1-4)[Fuc(a1-3)]GlcNAc
# Procedure, shortened: as §1
# [30] = target: Gal(b1-3)GlcNAc(b1-3)Gal(b1-4)[Fuc(a1-3)]GlcNAc(b1-6)[Gal(b1-3)GlcNAc(b1-3)]Gal(b1-4)Glc
# Procedure, shortened: as §1
# [31] = target: Gal(b1-3)GlcNAc(b1-3)GalNAc
# Procedure, shortened: as §1
# [32] = target: Gal(b1-3)GlcNAc(b1-6)Gal(b1-4)GlcNAc
# Procedure, shortened: as §1
binder,measurement,setting,value
B1,glycan array binding signal (z-score),Gal(a1-3)Gal(b1-4)GlcNAc,-0.431
same,glycan array binding signal (z-score),[1],-0.525
same,glycan array binding signal (z-score),[2],-0.367
same,glycan array binding signal (z-score),[3],-0.198
same,glycan array binding signal (z-score),[4],-0.494
same,glycan array binding signal (z-score),[5],-0.475
same,glycan array binding signal (z-score),[6],-0.521
same,glycan array binding signal (z-score),Gal(a1-3)GalNAc,-0.343
same,glycan array binding signal (z-score),[7],-0.022
same,glycan array binding signal (z-score),[8],-0.451
same,glycan array binding signal (z-score),Gal(a1-4)Gal(b1-4)Glc,0.248
same,glycan array binding signal (z-score),Gal(a1-4)Gal(b1-4)GlcNAc,0.037
same,glycan array binding signal (z-score),[9],-0.512
same,glycan array binding signal (z-score),[10],-0.302
same,glycan array binding signal (z-score),Gal(a1-4)GlcNAc,-0.5
same,glycan array binding signal (z-score),Gal(a1-6)Glc,-0.393
same,glycan array binding signal (z-score),Gal(b1-2)Gal,-0.454
same,glycan array binding signal (z-score),Gal(b1-3)Gal,-0.466
same,glycan array binding signal (z-score),Gal(b1-3)Gal(b1-4)GlcNAc,-0.064
same,glycan array binding signal (z-score),Gal(b1-3)GalNAc,-0.182
same,glycan array binding signal (z-score),[11],-0.124
same,glycan array binding signal (z-score),[12],-0.391
same,glycan array binding signal (z-score),Gal(b1-3)GalNAc(b1-3)Gal,0.043
same,glycan array binding signal (z-score),[13],-0.111
same,glycan array binding signal (z-score),[14],0.008
same,glycan array binding signal (z-score),[15],0.451
same,glycan array binding signal (z-score),Gal(b1-3)GlcNAc,-0.448
same,glycan array binding signal (z-score),[16],-0.494
same,glycan array binding signal (z-score),[17],-0.374
same,glycan array binding signal (z-score),Gal(b1-3)GlcNAc(b1-2)Man,-0.207
same,glycan array binding signal (z-score),[18],0.003
same,glycan array binding signal (z-score),[19],-0.332
same,glycan array binding signal (z-score),[20],-0.059
same,glycan array binding signal (z-score),[21],-0.22
same,glycan array binding signal (z-score),[22],-0.285
same,glycan array binding signal (z-score),[23],-0.465
same,glycan array binding signal (z-score),[24],-0.522
same,glycan array binding signal (z-score),[25],-0.524
same,glycan array binding signal (z-score),[26],1.29
same,glycan array binding signal (z-score),[27],0.522
same,glycan array binding signal (z-score),[28],-0.334
same,glycan array binding signal (z-score),[29],-0.475
same,glycan array binding signal (z-score),[30],-0.529
same,glycan array binding signal (z-score),[31],-0.078
same,glycan array binding signal (z-score),[32],-0.257
